These results are taken from paper PMC6919601, “Identification of Plasmodium dipeptidyl aminopeptidase allosteric inhibitors by high throughput screening” (PLoS ONE, 2019).

In all, about 110,000 compounds went through this assay and about 230 (0.21%) showed an effect of 50% or more. This is one part of the list.
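Further: 30 min substrate incubation versus DMSO and 10 µM JCP410 controls.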

This experiment deals with DPAP1 (Plasmodium falciparum, UniProt Q8IIJ9). In words: primary screen, percent inhibition; read by cleavage of a fluorogenic dipeptide substrate; higher = more effect of the substance. On the set-up: species or system P. falciparum D10 trophozoite lysates; single well.
Chain of DPAP1 (Q8IIJ9 whole entry, looked up): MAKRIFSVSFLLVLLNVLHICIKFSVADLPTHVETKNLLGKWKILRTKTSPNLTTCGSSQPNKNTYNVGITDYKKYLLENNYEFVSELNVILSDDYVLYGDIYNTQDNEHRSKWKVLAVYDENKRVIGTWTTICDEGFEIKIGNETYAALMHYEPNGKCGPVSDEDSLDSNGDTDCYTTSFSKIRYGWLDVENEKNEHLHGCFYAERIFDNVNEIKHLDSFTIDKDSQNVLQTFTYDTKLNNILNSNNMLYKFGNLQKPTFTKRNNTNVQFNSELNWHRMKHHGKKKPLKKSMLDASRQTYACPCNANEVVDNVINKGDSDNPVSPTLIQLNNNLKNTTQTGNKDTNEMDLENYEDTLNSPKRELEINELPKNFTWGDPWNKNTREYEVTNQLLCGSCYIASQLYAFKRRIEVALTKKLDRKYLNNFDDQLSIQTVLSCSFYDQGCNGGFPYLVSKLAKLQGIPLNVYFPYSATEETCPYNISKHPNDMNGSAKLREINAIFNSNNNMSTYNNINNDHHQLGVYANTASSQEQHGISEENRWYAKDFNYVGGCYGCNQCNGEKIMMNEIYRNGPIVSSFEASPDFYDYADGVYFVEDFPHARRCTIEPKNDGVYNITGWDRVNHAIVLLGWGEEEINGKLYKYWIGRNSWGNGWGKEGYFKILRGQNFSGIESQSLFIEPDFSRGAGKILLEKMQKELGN
Regarding `Cc1ccc(S(=O)(=O)N2CCN(C/C=C/c3ccccc3)CC2)cc1`, the “% Inhibition @ 10 uM” value is 9.51%.

With `O=C(O)/C=C/c1cccc(/C=C/C(=O)O)c1`, the “% Inhibition @ 10 uM” value was -6.18%.

Take `O=C1C2=C(C(c3ccccc3)=NCCN2)C(c2cccc(F)c2)N1c1ccccc1` (centres unmarked): the “% Inhibition @ 10 uM” value was 5.79%.

With `CCC(=O)N1c2ccccc2C(N(C(C)=O)c2ccccc2)CC1C` (centres unmarked), the “% Inhibition @ 10 uM” value turned out to be 3.65%.

As for `COCCNC(=O)c1cnn(-c2ccccc2Cl)c1C1CCN(C(=O)OC(C)(C)C)CC1`, the “% Inhibition @ 10 uM” value is recorded as -5.19%.

As to `Cc1ccc(CSCc2ccc(C(=O)NCc3cccnc3)o2)cc1`, the “% Inhibition @ 10 uM” value is listed as 3.79%.

`COC(=O)C1=CN(C(C)C)C=C(C(=O)OC)C1c1ccccc1Cl`: the “% Inhibition @ 10 uM” value was -3.23%.

`Cc1cc(NC(=O)CCCS(=O)(=O)c2nc(-c3cccs3)cc(C(F)(F)F)n2)no1`: the “% Inhibition @ 10 uM” value was 11.6%.

Consider `COc1ccc(Cl)cc1C(=O)NCc1ccc(F)cc1`, for which the “% Inhibition @ 10 uM” value is -1.02%.

`CNC(=O)/C(C#N)=C/c1c(Oc2cc(C)cc(C)c2)nc2ccccn2c1=O`: the “% Inhibition @ 10 uM” value is listed as -5.1%.

As to `C=CCNC(=O)COc1ccc(Cl)cc1`, the “% Inhibition @ 10 uM” value amounted to 3.24%.

For `CSc1ccc(CN2CCN(Cc3ccco3)CC2)cc1`, the “% Inhibition @ 10 uM” value was -1.06%.

As for `COC(=O)C1=C(C)NC(=O)NC1c1ccccc1OCc1ccccc1` (centres unmarked), the “% Inhibition @ 10 uM” value is 7.5%.

As for `COc1ccc(/C=C/C(=O)c2oc3ccc(F)cc3c2C)cc1`, the “% Inhibition @ 10 uM” value was -5.38%.

Regarding `Cc1ccccc1C1N2CCCN12` (centres unmarked), the “% Inhibition @ 10 uM” value is on record as -3.11%.

With `FC(F)(F)C1(C(F)(F)F)N=C(c2ccc(Cl)cc2)OC(N2CCOCC2)=N1`, the “% Inhibition @ 10 uM” value came out at 0.275%.

Turning to `O=C(NCCCN1CCOCC1)C1CCN(c2nn3cc(-c4ccc(F)cc4)nc3s2)CC1`, the “% Inhibition @ 10 uM” value is -5.54%.

For the compound `CCOc1ccc(C2CC(=O)N=C(NC(=O)CCCOc3ccccc3)N2)cc1` (centres unmarked), the “% Inhibition @ 10 uM” value is recorded as -3.01%.

In the case of `O=C(NCCCN1CCN(Cc2ccccc2)CC1)c1cc(-c2ccncc2)nc2ccccc12`, the “% Inhibition @ 10 uM” value was -0.519%.

In the case of `COc1ccc(C(=O)Nc2ccc(Cl)cc2C(=O)NCCO)cc1`, the “% Inhibition @ 10 uM” value was -3.09%.

As for `O=c1cccc2n1C[C@H]1C[C@@H]2CN(Cc2ccc3c(c2)OCO3)C1`, the “% Inhibition @ 10 uM” value is given as -10.5%.

As to `CC(Sc1nc(O)c2cnn(-c3ccccc3)c2n1)c1ccccc1` (centres unmarked), the “% Inhibition @ 10 uM” value was found to be 0.208%.

`O=C(NCCO)c1ccc(CSc2nc(O)c3c4c(sc3n2)CCCC4)cc1`: the “% Inhibition @ 10 uM” value stood at 4%.

As for `CN1CCC(N2CCCN(C)CC2)CC1`, the “% Inhibition @ 10 uM” value is -3.27%.

`COc1ccc(C(=O)NC(N2CCCC2=O)(C(F)(F)F)C(F)(F)F)cc1`: the “% Inhibition @ 10 uM” value is given as -3.37%.

With `CCS(=O)(=O)c1ncc(Cl)c(C(=O)Nc2c(C(=O)c3ccc(F)cc3)oc3ccccc23)n1`, the “% Inhibition @ 10 uM” value is -2.85%.

With `C/C=C(\C)CN(C)CCN(CC)CC`, the “% Inhibition @ 10 uM” value is -0.603%.

Consider `COc1ccc(/C=C/C(O)=C2\C(=O)Oc3ccccc3C2=O)c(OC)c1`, for which the “% Inhibition @ 10 uM” value is reported as -1.46%.

Consider `Cc1cccc(NC(=O)c2cccc(Cl)c2)c1C`, for which the “% Inhibition @ 10 uM” value is given as 0.467%.

With `CCOc1ccc(-c2cc(C(=O)NCCN3CCOCC3)c3cc(C)ccc3n2)cc1`, the “% Inhibition @ 10 uM” value stood at 2.4%.

`COc1ccccc1S(=O)Cc1ccc(C(=O)NC2CCCC2)o1` (centres unmarked): the “% Inhibition @ 10 uM” value was -6.89%.

As for `COc1cc(S(=O)(=O)n2ccnc2C)c(OC)cc1Cl`, the “% Inhibition @ 10 uM” value is given as -0.053%.

Consider `CC(=O)c1c(C)nc(S)c(C#N)c1-c1ccc(Cl)cc1`, for which the “% Inhibition @ 10 uM” value was 33.7%.

With `NCC/C=C1/c2ccccc2CSc2ccccc21`, the “% Inhibition @ 10 uM” value is given as -0.759%.

Consider `CC(=O)Nc1ccc(NC(=O)C2C3CCCCC32)cc1` (centres unmarked), for which the “% Inhibition @ 10 uM” value is listed as -2.62%.

As to `CCCN1CCN(C(=O)CCc2c(C)nc3cc(-c4ccc(OC)cc4OC)nn3c2C)CC1`, the “% Inhibition @ 10 uM” value is given as 1.26%.

With `CC(O)CN(Cc1ccc(Cl)cc1Cl)CC(C)O` (centres unmarked), the “% Inhibition @ 10 uM” value came to 0.217%.

As to `COP(=O)(OC)C(Nc1ccc(Br)cc1)c1c[nH]c2ccccc12` (centres unmarked), the “% Inhibition @ 10 uM” value was -5.23%.

On to `O=C(CCc1ccccc1)Nc1ccccc1C(=O)NCc1ccco1`, for which the “% Inhibition @ 10 uM” value is listed as -8.2%.

`Cc1cccc(NCc2ccc([N+](=O)[O-])cc2)c1`: the “% Inhibition @ 10 uM” value was determined as 1.08%.

With `COc1ccc(C2=CC(c3ccc(Cl)cc3Cl)n3ncnc3N2)cc1OC` (centres unmarked), the “% Inhibition @ 10 uM” value was -1.4%.

As for `COc1cc(Oc2ccc(C(C)C)cc2C)nc(N)n1`, the “% Inhibition @ 10 uM” value is on record as 0.565%.

On to `O=C(Nc1ccc(C(=O)Nc2cccc(Cl)c2)cc1)c1ccccc1`, for which the “% Inhibition @ 10 uM” value was -1.43%.

In the case of `CCOC(=O)c1c(C)[nH]c(C)c1S(=O)(=O)NCC(=O)N(C)C1CCCCC1`, the “% Inhibition @ 10 uM” value is 2.41%.

On to `COc1ccc(S(=O)(=O)c2cnc3cc4c(cc3c2N2CCCCC2)OCCO4)cc1`, for which the “% Inhibition @ 10 uM” value is reported as -6.24%.

On to `C=CCSc1nc2c(cc1C#N)CCC2`, for which the “% Inhibition @ 10 uM” value was -1.98%.

With `O=C(O)c1ccc(C2Nc3cccc4cccc(c34)N2)cc1`, the “% Inhibition @ 10 uM” value was determined as 2.65%.

As to `C=CCN1C(=O)S/C(=C/c2c(OC)cc(OC)cc2OC)C1=O`, the “% Inhibition @ 10 uM” value is listed as 3.81%.

Regarding `CC1=C(C(=O)Nc2cc(C)ccn2)C(c2cnn(C)c2)C2=C(O)CC(c3ccccc3)CC2=N1` (centres unmarked), the “% Inhibition @ 10 uM” value is given as -1.44%.

For `Sc1nnc2c3ccccc3n(Cc3ccccc3)c2n1`, the “% Inhibition @ 10 uM” value came out at 7.24%.

Take `COC(=O)c1c(NC(=O)C2CSC(c3ccncc3)=N2)sc(C)c1C` (centres unmarked): the “% Inhibition @ 10 uM” value is on record as -2.14%.

Take `CC(=O)Nc1ccc(Cl)c2ccccc12`: the “% Inhibition @ 10 uM” value was found to be 0.774%.

In the case of `O=C1CSC(c2ccccc2)N1c1ncccn1` (centres unmarked), the “% Inhibition @ 10 uM” value is 1.38%.

On to `Cc1cccc(CN2CCC(C/N=c3/c(-c4ccccc4)c(O)c3=O)CC2)c1`, for which the “% Inhibition @ 10 uM” value was -6.87%.

As for `COc1ccc(NC(=O)C2C3C=CC(C3)C2C(=O)O)c(OC)c1` (centres unmarked), the “% Inhibition @ 10 uM” value is listed as -5.06%.

For the compound `COc1ccc(C2Nc3ccccc3N=C3CC(C)(C)CC(O)=C32)cc1OC` (centres unmarked), the “% Inhibition @ 10 uM” value was 5.29%.

On to `Cc1ccc(S(=O)(=O)N2CCC(C(=O)N3CCc4ccccc4C3)CC2)cc1`, for which the “% Inhibition @ 10 uM” value is listed as -0.169%.

In the case of `CCSc1nnc(NC(=O)/C=C/c2ccccc2OC)s1`, the “% Inhibition @ 10 uM” value stood at 2.79%.

In the case of `CCCC(C)C(=O)Nc1ccc(S(=O)(=O)N2CCCC2)cc1` (centres unmarked), the “% Inhibition @ 10 uM” value came to 3.17%.

Regarding `COc1cccc(N(CC(=O)Nc2ccc(Br)cc2)S(=O)(=O)c2ccccc2)c1`, the “% Inhibition @ 10 uM” value was -3.28%.

On to `COc1ccc(CN2CCNC(=O)C2CC(=O)O)c(F)c1` (centres unmarked), for which the “% Inhibition @ 10 uM” value is given as -2.71%.

In the case of `CCOC(=O)N1CCN(C(=O)C(C)(C)Oc2ccc(Cl)cc2)CC1`, the “% Inhibition @ 10 uM” value was -3.06%.

Turning to `CCOC(=O)N1CCN(C(=O)CN(c2ccccc2OC)S(C)(=O)=O)CC1`, the “% Inhibition @ 10 uM” value amounted to 4.08%.

With `CCOc1c(C)cc(-c2ncccc2O)cc1C`, the “% Inhibition @ 10 uM” value is on record as -0.415%.

For `CN1CCN(Cc2ccccc2C(F)(F)F)CC1`, the “% Inhibition @ 10 uM” value was found to be 4.67%.
